Measurements taken from ChEMBL document CHEMBL4888484, “Replenishing the malaria drug discovery pipeline: Screening and hit evaluation of the MMV Hit Generation Library 1 (HGL1) against asexual blood stage Plasmodium falciparum ,using a nano luciferase reporter read-out” (2022).
Several values for one entry are separate records, joined by “and”; a condition that tells them apart may be missing. Equal values may be shown once. In all, about 150,000 compounds went through this assay and about 540 (0.36%) showed an effect of 50% or more. The list shows a part of the results.

Test system: Plasmodium falciparum
Assay: Primary screen in NF54 nanoGlo assay, in single point, at 2uM, 72h; a lower Z score goes with more inhibition
Type: functional, Erythrocyte
Settings: timepoint 72 hour

Row | SMILES | % Inhibition | Z score | % Inhibition (2 µM)
1 | COc1cc([C@H]2CC(O)=Nc3nc(N)sc32)ccc1OCCc1ccccc1 | -7% | 0.99 | 
2 | CC(C)c1ccccc1NC(=O)CCN1CCC2(CC1)C(=O)N(C)C(=O)N2C | 4% | -0.6 | 
3 | c1ccc(CNc2nccc(N3CCn4cnnc4C3)n2)cc1 | 22% | -2.56 | 
4 | O=C(CCNC(=O)N1CCOCC1)Nc1ccccc1 | -2% | 0.32 | 
5 | CCc1cccc(NC(=O)CN2N=C(c3ccccc3)c3ccccc3S2(=O)=O)c1 | -26% | 2.43 | 
6 | CCCC(C#N)(CCC)NC(=O)c1ccncc1F | -7% | 1.18 | 
7 | COc1cccc(-c2ccc(N3CCC(NC[C@H]4CCCO4)CC3)cc2)c1 | -12% | 1.66 | 
8 | COc1ccc(S(=O)(=O)C2CCN(C(=O)c3cccc(C(F)(F)F)c3)CC2)cc1 | -23% | 2.89 | 
9 | CC(C)(CNC(=O)[C@@H]1NCCOc2ccccc21)C(N)=O | -5% | 0.86 | 
10 | COc1cccc2c1OC[C@@H](C(=O)NC1CCN(Cc3ccco3)CC1)C2 | -3% | 0.44 | 
11 | O=C(Nc1cccnc1)c1ccc(CNC(=O)c2ccccc2F)cc1 | -8% | 1.38 | 
12 | O=S(=O)(Nc1cccnc1)N1CCCC1 | 0% | 0.02 | 
13 | O=C(Nc1cncc2ccccc12)c1ncccn1 | -22% | 2.51 | 
14 | O=S(=O)(c1ccc2c(c1)CCC2)N1CCC(OCc2noc([C@@H]3CCCO3)n2)CC1 | 2% | -0.27 | 
15 | C[C@@H](O)[C@@H](CO)NC(=O)Cc1nn(C)c2ccccc12 | -10% | 1.92 | 
16 | O=C(c1cccc2cc[nH]c12)N1CC[C@@H](CO)[C@@H](O)C1 | -6% | 0.84 | 
17 | CN1CCC(NC(=O)c2n[nH]c3c2CN(C(=O)c2ccccc2F)CC3)CC1 | -2% | 0.25 | 
18 | CC(C)C[C@H](O)CNC(=O)c1ccncc1 | -4% | 0.63 | 
19 | Cc1ccccc1-c1nc2nc(C)c(CC(=O)N3CCN(c4ccc(F)cc4)CC3)c(C)n2n1 | 2% | -0.28 | 
20 | Cc1ccc(CNC(=O)c2cnc3c(-c4cccc(C)c4)c(C)nn3c2C(F)(F)F)cc1 | -11% | 1.23 | 
21 | CN(CC(=O)Oc1ccc(N2CCCC2=O)cc1)c1ccccc1 | 6% | -0.72 | 
22 | CC1CCCC(NC(=O)NC(=O)CN2CCC(=O)Nc3cc(F)ccc32)C1C (centres undefined) | -16% | 1.81 | 

Row | SMILES | % Inhibition | Z score | % Inhibition (2 µM)
23 | COc1ccc([C@H]2C[C@H](NCc3cnc(C4CC4)o3)C2)cc1F | 2% | -0.35 | 
24 | Cc1c(-c2cc(-c3cnn(C)c3C)n(S(=O)(=O)c3cnn(C)c3)n2)cnn1C | 34% | -3.83 | 
25 | O=C(Cc1ccccc1)NCCCNC(=O)Cc1ccccc1 | 1% | -0.09 | 
26 | Cc1nc(NC(=O)c2n[nH]c3c2CCC3)n(C)n1 | 7% | -1.19 | 
27 | CCOC(=O)[C@H]1CN(C(=O)OC(C)(C)C)CC[C@@H]1F | -9% | 1.47 | 
28 | O=C(Cc1csc(-c2ccccc2)n1)N1CCCC[C@@H]1CCn1ccnc1 | -12% | 1.58 | 
29 | CC[C@@H](O)CN1CCCCC1CCOC(C)C (some centres undefined) | -9% | 1.3 | 
30 | Cc1cccc(N2CCN(C(=O)Cn3cnc4onc(C)c4c3=O)CC2)c1C | -9% | 1.6 | 
31 | C[C@H]1CN(C(=O)CN2CCCC2)CCO1 | -11% | 1.18 | 
32 | Cc1cc(=O)[nH]c2c1cnn2[C@@H](C)C1CC1 | 1% | -0.15 | 
33 | COc1ccc(C(=O)C[C@H](Nc2ccc3ccccc3c2)c2cccnc2)cc1 | -5% | 0.73 | 
34 | C[C@H](NC(=O)CN1CCN(S(=O)(=O)c2ccccc2)CC1)c1cccs1 | -7% | 0.75 | 
35 | O=C(COc1cccc(Cl)c1)N1C[C@H]2CC[C@@H](C1)N(CC1CC1)C2=O | -1% | 0.19 | 
36 | COC(=O)C(C)(C)NS(=O)(=O)c1c(C)noc1C | -16% | 2.96 | 
37 | NCCCCc1nc(-c2ccccn2)cs1 | -4% | 0.51 | 
38 | Cc1cnn(CC(=O)N2CCN3CCOc4cccc2c43)c1 | 3% | -0.35 | 
39 | COc1cc2c(cc1OC)[C@@H](c1c(F)cccc1Cl)N(C(=O)c1ccccc1C(F)(F)F)CC2 | -19% | 1.66 | 
40 | O=C([C@H]1CC1(F)F)N1CCCc2n[nH]cc21 | -11% | 2.2 | 
41 | CCCCNC(=O)c1c(CO)cc(C)[nH]c1=O | 0% | -0.02 | 
42 | Cc1nscc1C(=O)N[C@H](C#N)c1cnn(-c2ccccc2)c1 | -2% | 0.32 | 
43 | CCn1ccnc1CN1CCN(C(=O)c2ccc3c(c2)ncn3C)CC1 | -7% | 1.42 | 
44 | CCCCc1nc(C)c(C(=O)NC2(C(=O)O)CCCCC2)s1 | -11% | 1.87 | 

Row | SMILES | % Inhibition | Z score | % Inhibition (2 µM)
45 | CC(=O)N1CCC(CN2CCn3cc(C(=O)NCc4ccccc4)nc3[C@H]2c2ccccc2)CC1 | -9% | 1.35 | 
46 | Cc1cc(CS(=O)(=O)[C@@H](C)C(=O)NCc2ccccc2)on1 | -12% | 2.41 | 
47 | CC(C)c1cncnc1N1CCO[C@H](c2ccc(Cl)cc2)C1 | 0% | 0.01 | 
48 | CONC(=O)N[C@@H](C)c1csc(C2CC2)n1 | -4% | 0.49 | 
49 | Cc1ccc(C(=O)N2CCC(N3CCCCC3)CC2)c(C2CCN(C(=O)c3ccc(F)cc3F)CC2)n1 | -2% | 0.26 | 
50 | CCOC(=O)C1=C(C)N(C2CCCCC2)C(=O)[C@]1(NC(=O)c1ccc(Cl)cc1Cl)C(F)(F)F | -15% | 1.91 | 
51 | O=C1[C@@H]2C[C@H](O)CCN2C(=O)CN1C1Cc2ccccc2C1 | -8% | 1.57 | 
52 | CC(=O)Nc1cccc2c(C(=O)N3CCCC3)ccnc12 | -3% | 0.57 | 
53 | CCOC=CC(O)(CNC(=O)N[C@@H]1COC[C@@H]1OC)C(F)(F)F (some centres undefined) | -13% | 1.67 | 
54 | CC(C)c1cncnc1N1C[C@@H]2OC(=O)N(CCCN3CCOCC3)[C@@H]2C1 | -14% | 1.99 | 
55 | COc1cc(CNC2CCCC2)cc(Cl)c1OCc1ccccc1Cl |  |  | 3% and -11%
56 | CCn1nnc(C)c1C(=O)NCCn1cnnc1C(C)C | 12% | -1.51 | 
57 | CNc1ncc(C(=O)NC[C@@H](c2ccc(F)cc2)N2CCCC2)cn1 | -12% | 2.37 | 
58 | COCCNC(=O)c1csc(C(C)C)c1 | -14% | 1.99 | 
59 | C[C@H]1CN(CC(=O)Nc2ccccn2)Cc2c[nH]nc21 | 4% | -0.45 | 
60 | O=C(CN1CC(c2nc3ccccc3[nH]2)C1)NC[C@H]1CCCO1 | -8% | 0.77 | 
61 | CN(c1ncc(Cl)cn1)C1CC[S+]([O-])CC1 (centres undefined) | 0% | -0.06 | 
62 | C=CCCC(=O)[C@@H]1CCCN1S(=O)(=O)c1c(C)nn(C)c1C | -10% | 1.8 | 
63 | CCOc1ccc(CNC(=O)c2cc(C3CC3)n(C)n2)cc1 | -10% | 1.99 | 
64 | Cc1noc(C)c1CCC(=O)NC1CCN(c2cnccn2)CC1 | 3% | -0.45 | 
65 | COCc1cn(C[C@H]2C[C@@H](NC(=O)Nc3ccc4c(c3)OCCO4)[C@H](O)[C@@H]2O)nn1 | 15% | -1.75 | 
66 | Cc1ccc(C)c(CNC(=O)[C@H]2CCCN(c3nnc4ccccn34)C2)c1 | -6% | 1.22 | 

Row | SMILES | % Inhibition | Z score | % Inhibition (2 µM)
67 | COCCN(Cc1cccnc1)C(=O)c1ccccc1-c1nnn[nH]1 | -10% | 1.01 | 
68 | CN[C@@H](C(=O)Nc1nc(C2CC2)c(Cc2ccccc2F)s1)c1cnn(C)c1 | -8% | 1 | 
69 | Cc1cc(NC(=O)C(=O)NC[C@H](O)c2ccc(C)o2)no1 | -15% | 2.52 | 
70 | CC(Cc1ccncc1)NC(=O)N1CCN2C(=O)NCC2C1 (centres undefined) | -5% | 0.74 | 
71 | CCC[C@]1(C(=O)O)CCCN(C(=O)CCCc2cn[nH]c2)C1 | -6% | 0.86 | 
72 | CCc1ccc(-c2n[nH]c3c2cnc2ccc(OC)cc23)cc1 | 32% | -0.66 | 
73 | CCOC(=O)N1CCN(Cn2c(=S)sc3ccccc32)CC1 | -11% | 1.54 | 
74 | Clc1ccc(-c2nccn2[C@H]2CCCOC2)c(Cl)c1 | -2% | 0.22 | 
75 | CCCC(=O)Nc1ccc(N2CCN(CC(=O)N(CC)CC)CC2)cc1C(=O)O | 38% | -5.53 | 
76 | C[N+]1(CCCC(=O)c2ccc3c(c2)OCCO3)CCC(c2ccccc2)C1 (centres undefined) | 73% | -8.3 | 
77 | CCCCc1nc(CN(CC#N)C2CC2)cs1 | -9% | 1.75 | 
78 | COc1cc(OC)nc(C(=O)N2CCCc3ccnc(N(C)C)c32)n1 | -9% | 1.61 | 
79 | Cn1cccc1-c1cc2n(n1)CCC(=O)N2CCCC(=O)NCCc1ccc(Cl)cc1 | -7% | 1.27 | 
80 | O=S(=O)(Nc1nc2ccccc2nc1NC1CCN(Cc2ccccc2)CC1)c1cccs1 | -40% | 4.7 | 
81 | CCCN(C)C(=O)c1cc(-c2ccccc2)cn1CC | 6% | -0.87 | 
82 | CC1CN(C(=O)c2cn(Cc3ccccc3)nc2-c2ccccc2)CC(C)O1 (centres undefined) | -1% | 0.14 | 
83 | CCc1ncncc1-c1nc([C@@H]2CCCN2C(=O)OC(C)(C)C)no1 | -22% | 2.91 | 
84 | CC(=O)N[C@H]1CCN(Cc2cc(Cl)c(OC(C)C)c(Cl)c2)C1 | -8% | 1.49 | 
85 | Nc1cncc(CCCCOCc2ccccc2)c1 | -16% | 1.6 | 
